In test [1] the target is T1, HS-Atf7IP2(297–388) (UniProt Q5U623).
T1 sequence: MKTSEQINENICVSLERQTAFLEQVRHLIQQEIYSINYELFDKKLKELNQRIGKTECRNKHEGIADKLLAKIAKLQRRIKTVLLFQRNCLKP
Nature of the test: sequential affinity purification of co-expressed proteins; MBP-Setdb1(2–115), HS-Atf7IP2(297–388) and Strep-Atf7IP2(297–388) co-expressed in E. coli; purified first by the His and then by the Strep tag.

For test [2], the target named is T2, 6Xhis-SUMO-Atf7IP(574–666) (human) (UniProt Q6VMQ6).
T2 sequence: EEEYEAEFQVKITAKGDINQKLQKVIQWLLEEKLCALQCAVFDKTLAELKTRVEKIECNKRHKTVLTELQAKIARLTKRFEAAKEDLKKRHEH
Nature of the test: sequential affinity purification of co-expressed proteins; MBP-Setdb1(2–115), HS-Atf7IP(574–666) and Strep-Atf7IP2(297–388) co-expressed in E. coli; purified first by the his and then by the strep tag.

No constants are given. Whether binding was seen depends on the method and setting. Some entries that bind do so weakly or less than the wild type. For some assays here: Tags and fused reporters may be left off the sequences shown.

One molecule from article doi:10.1101/2024.12.23.630145, “Setdb1 and Atf7IP form a hetero-trimeric complex that blocks Setdb1 nuclear export” (bioRxiv, 2024) can be followed below.

B1: Strep-Atf7IP2(297–388) (domain or fragment, UniProt Q5U623 297-388)
chain: T1 sequence
With B1, the binding entry in test [1] and in test [2] was “binds” each time.
